In PubChem BioAssay AID588342 (National Center for Advancing Translational Sciences (NCATS), 2011):
Several values for one entry are separate records, joined by “and”; a condition that tells them apart may be missing. Equal entries are not always repeated. The campaign covered roughly 360,000 compounds. About 25,000 (6.9%) were called active. The inconclusive results got no clear call from the source; some entries with a clear call stand among them for comparison. The call rests on the fitted dose curve; in most records, active means well fitted inhibition curve with a large enough effect; inconclusive means small, poorly fitted or top-dose-only effect; inactive means flat fitted curve, though single readings scatter. Potencies beside an inconclusive call are fits to weak or partial responses and may not hold up.

These molecules were tested against Luciferin 4-monooxygenase (Photinus pyralis) (UniProt P08659) (assay: qHTS profiling assay for firefly luciferase inhibitor/activator using purifed enzyme and Km concentrations of substrates (counterscreen for miR-21 project)). Conditions: purified FLuc, luminescence inhibition; activity change, negative = inhibition: at 57.5 µM (top of the series).
Chain of UniProt P08659 (P08659 whole entry, looked up): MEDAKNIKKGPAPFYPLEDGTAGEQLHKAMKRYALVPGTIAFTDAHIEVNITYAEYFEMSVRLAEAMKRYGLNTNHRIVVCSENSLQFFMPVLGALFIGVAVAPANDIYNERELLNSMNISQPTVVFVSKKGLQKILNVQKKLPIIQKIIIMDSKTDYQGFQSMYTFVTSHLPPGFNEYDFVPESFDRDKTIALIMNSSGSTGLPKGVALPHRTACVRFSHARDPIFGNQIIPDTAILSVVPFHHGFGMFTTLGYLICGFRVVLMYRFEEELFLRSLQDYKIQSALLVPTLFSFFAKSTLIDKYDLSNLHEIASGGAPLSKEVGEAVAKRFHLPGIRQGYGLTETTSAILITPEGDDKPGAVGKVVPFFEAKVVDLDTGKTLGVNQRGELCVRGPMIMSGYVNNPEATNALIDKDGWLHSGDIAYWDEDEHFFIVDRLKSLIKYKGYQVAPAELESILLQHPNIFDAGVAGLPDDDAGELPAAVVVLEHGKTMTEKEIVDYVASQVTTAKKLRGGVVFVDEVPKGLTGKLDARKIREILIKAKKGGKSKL
In short: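 Biochemical qHTS of compounds, final roughly 60 µM downward over six points, against 10 nM purified firefly luciferase using Km concentrations of substrates (10 uM D-luciferin, 10 uM ATP) in Tris acetate pH 7.5 buffer; luminescence output.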
Further: nearly all actives have a fitted effect of over 55% in size.
Potency means the concentration at half of the fitted maximal effect; tags describe the fitted curve by direction and shape.
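Wherever activity change, negative = inhibition is given: plate controls were vehicle for no effect and reference inhibitor for full effect.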

Question: CCN(CC)c1ccc(NC(=O)c2cccc(OC)c2)c(C)c1 was tested. Which Potency did it give?
Answer: The Potency was inconclusive: 30.1 µM [inhibitor, partial curve, poor fit].

Question: Which “activity change, negative = inhibition” value does the source give for Cc1cc(NC(=O)CSc2nnc3ccccn23)no1 here?
Answer: Its value is inactive: -0.121%.

Question: With Cc1ccc(C)c(N2CCN(C(=O)CN3C(=O)CSc4c3c(C)nn4-c3ccccc3)CC2)c1 as the molecule, how does the Potency read?
Answer: Its Potency is inconclusive: 21.3 µM [inhibitor, partial curve, poor fit].

Question: For CCOC(=O)c1cccc(-c2c(-c3ccccc3)ncc3cc(OC)c(OC)cc23)c1, which Potency is on record?
Answer: The Potency was inconclusive: 30.1 µM [inhibitor, single point].

Question: Which Potency does the source give for O=c1cc(N2CCCCC2)c(-c2ccccc2)nn1Cc1ccccc1 here?
Answer: The Potency was inconclusive: 37.9 µM [inhibitor, partial curve, poor fit].

Question: Which Potency does the source give for Cc1cc(C)c2c(=O)n(CC(=O)NC3CCCC3)sc2n1 here?
Answer: Its Potency is inconclusive: 9.53 µM [inhibitor, partial curve].

Question: CN1CCN(c2ccc(NC(=O)c3ccccc3)cc2)CC1 was tested. Which Potency did it give?
Answer: The Potency was active: 10.7 µM.

Question: How did the Potency turn out when Cc1cc(/C=C(\C#N)C(=O)O)c(C)n1C1CC1 was run?
Answer: The Potency was inconclusive: 23.9 µM [inhibitor, single point].

Question: How did the “activity change, negative = inhibition” value turn out when COc1ccc(C)cc1NC(=O)NC1CCCc2ccccc21 (stereo not drawn) was run?
Answer: Its value is inactive: 2.45%.

Question: With Cc1cc(C)cc(CN2C(=O)NC3(CCCCCC3)C2=O)c1 as the molecule, how does the Potency read?
Answer: The Potency was inconclusive: 19 µM [inhibitor, partial curve].

Question: For CCCc1cc(N2CCCC(C(=O)NCc3ccc4c(c3)OCO4)C2)n2ncnc2n1 (stereo not drawn), which “activity change, negative = inhibition” value is on record?
Answer: Its value is inactive: 4.71%.

Question: Which Potency does the source give for CCN1C(=O)[C@H]2[C@@H](c3ccc(-c4ccc(OC)cc4)cc3)N3CCC[C@@]3(C(=O)OC)[C@H]2C1=O here?
Answer: Its Potency is inconclusive: 21.3 µM [inhibitor, single point].

Question: CCOC(=O)C1=C(C)N(CCCC(=O)O)C(=O)NC1c1ccccc1OS(=O)(=O)c1ccc(C)cc1 (stereo not drawn) was tested. Which Potency did it give?
Answer: Its Potency is inconclusive: 23.9 µM [inhibitor, single point].

Question: For COc1ccc(NC(=O)c2cc(SC)ccc2Cl)cc1, which Potency is on record?
Answer: The Potency was inconclusive: 26.9 µM [inhibitor, partial curve, poor fit].

Question: For COC(=O)c1sccc1NC(=O)Nc1ccc(OC)cc1, which Potency is on record?
Answer: Its Potency is active: 1.69 µM.

Question: How did the Potency turn out when CCOc1ccc(OCCOc2ncnc3ccccc23)cc1 was run?
Answer: Its Potency is inconclusive: 15.1 µM [inhibitor, partial curve].

Question: With COc1ccc(CC(=O)N2CCCc3ccccc32)cc1 as the molecule, how does the Potency read?
Answer: The Potency was inconclusive: 21.3 µM [inhibitor, single point].

Question: With COc1ccccc1NC(=O)N(Cc1ccco1)Cc1cc2c(C)ccc(C)c2[nH]c1=O as the molecule, how does the Potency read?
Answer: Its Potency is inconclusive: 19 µM [inhibitor, single point].

Question: Which Potency does the source give for CCCc1nnc(NC(=O)c2nc(S(=O)(=O)Cc3ccc(C)cc3)ncc2Cl)s1 here?
Answer: Its Potency is inconclusive: 10.7 µM [inhibitor, partial curve].

Question: With CCOC(=O)c1ccccc1N/C=C/C(=O)c1cccs1 as the molecule, how does the Potency read?
Answer: Its Potency is inconclusive: 15.1 µM [inhibitor, partial curve].

Question: For CCS(=O)(=O)N1Cc2ccccc2CC1C(=O)Nc1cccc(C)c1 (stereo not drawn), which Potency is on record?
Answer: The Potency was active: 23.9 µM.

Question: How did the Potency turn out when Cc1nc(N)sc1-c1csc(Nc2ccc(Cl)cn2)n1 was run?
Answer: Its Potency is active: 16.9 µM.

Question: COc1ccc(-c2csc(NCc3ccco3)n2)cc1C was tested. Which Potency did it give?
Answer: The Potency was inconclusive: 1.07 µM [inhibitor, partial curve, poor fit].

Question: Cc1ccc(OCCCn2c(C3CC(=O)N(c4cccc(Cl)c4)C3)nc3ccccc32)c(C)c1 (stereo not drawn) was tested. Which Potency did it give?
Answer: Its Potency is inconclusive: 5.36 µM [inhibitor, partial curve].

Question: How did the Potency turn out when O=C(Nc1nnc(-c2ccco2)s1)C1CC1 was run?
Answer: The Potency was inconclusive: 23.9 µM [inhibitor, partial curve, poor fit].

Question: CCOc1cc(/C=N/NC(=O)Nc2ccccc2)ccc1O was tested. Which Potency did it give?
Answer: The Potency was active: 9.53 µM.

Question: For CN1/C(=C\C=C2/C(=O)Oc3ccccc3C2=O)C(C)(C)c2ccccc21, which Potency is on record?
Answer: Its Potency is inconclusive: 2.69 µM [inhibitor, full curve, poor fit].

Question: FC(F)(F)c1ccccc1/C=N/Nc1ccccn1 was tested. Which Potency did it give?
Answer: Its Potency is inconclusive: 13.5 µM [inhibitor, partial curve].

Question: Which “activity change, negative = inhibition” value does the source give for Cc1ccsc1C(=O)OCC(=O)NCCNC(=O)COC(=O)c1sccc1C here?
Answer: The value was inactive: -0.912%.

Question: How did the “activity change, negative = inhibition” value turn out when Cc1ccc(CN2CCSc3ccc(C(=O)N4CCN(c5cccc(C)c5C)CC4)cc32)cc1 was run?
Answer: The value was inactive: -2.26%.

Question: With COc1ccc(NC(=O)c2ccc3c(c2)C(=O)N(CC2CCCO2)C3=O)cc1 (stereo not drawn) as the molecule, how does the Potency read?
Answer: Its Potency is inconclusive: 37.9 µM [inhibitor, partial curve, poor fit].

Question: How did the “activity change, negative = inhibition” value turn out when CCOCc1c(C(=O)NCc2ccccc2CN2CCCC2)oc2ccccc12 was run?
Answer: Its value is inactive: 6.95%.

Question: How did the Potency turn out when COc1ccc(Cc2nc3ccc(C(=O)NC(C)Cc4ncccc4C)cc3o2)cc1OC (stereo not drawn) was run?
Answer: Its Potency is inconclusive: 19 µM [inhibitor, partial curve].

Question: For Oc1ccc(/C=N/Nc2ccc(Cl)nn2)c(O)c1O, which Potency is on record?
Answer: Its Potency is inconclusive: 37.9 µM [inhibitor, single point].

Question: With CN(C(=O)COC(=O)c1ccc2[nH]c3c(c2c1)CCCC3)C1CCS(=O)(=O)C1 (stereo not drawn) as the molecule, how does the Potency read?
Answer: Its Potency is inconclusive: 37.9 µM [inhibitor, single point].

Question: For Cc1nc2ccc(-c3nc4ccccc4[nH]3)cc2[nH]1, which Potency is on record?
Answer: The Potency was active: 4.78 µM.

Question: For CCCCNC(=O)/C(C#N)=C/c1ccc(F)cc1F, which “activity change, negative = inhibition” value is on record?
Answer: Its value is inactive: -17.9%.

Question: Which Potency does the source give for O=[N+]([O-])c1cccnc1Sc1n[nH]c(-c2ccc(Cl)cc2)n1 here?
Answer: The Potency was inconclusive: 30.1 µM [inhibitor, partial curve, poor fit].

Question: CCOC(=O)C1CCN(C(=O)c2cc3cc4ccc(C)cc4nc3o2)CC1 was tested. Which Potency did it give?
Answer: Its Potency is inconclusive: 21.3 µM [inhibitor, single point].

Question: Which “activity change, negative = inhibition” value does the source give for CCCC(C(=O)NC(C)(C)CC)N(Cc1ccco1)C(=O)CNS(=O)(=O)c1ccccc1 (stereo not drawn) here?
Answer: The value was inactive: 0.146%.

Question: CCOC(=O)c1ccc(NC(=O)CC2C(=O)N(c3ccccc3)C(=O)N2Cc2cccs2)cc1 (stereo not drawn) was tested. Which Potency did it give?
Answer: The Potency was inconclusive: 37.9 µM [inhibitor, partial curve, poor fit].

Question: Which Potency does the source give for Cc1ccc(C)c(S(=O)(=O)Nc2ccc(O)c(C(=O)O)c2)c1 here?
Answer: Its Potency is inconclusive: 37.9 µM [inhibitor, partial curve, poor fit].

Question: How did the Potency turn out when Cc1ccc(S(=O)(=O)c2[nH]c(-c3ccccc3)nc2SCC(=O)O)cc1 was run?
Answer: Its Potency is inconclusive: 21.3 µM [inhibitor, partial curve].

Question: With COc1ccccc1NC(=O)c1ccc(Br)c(S(=O)(=O)N2CCCC2)c1 as the molecule, how does the Potency read?
Answer: The Potency was inconclusive: 37.9 µM [inhibitor, partial curve, poor fit].

Question: How did the Potency turn out when O=C1/C(=C/Nc2cccc([N+](=O)[O-])c2)CCc2ccccc21 was run?
Answer: Its Potency is active: 2.69 µM.

Question: How did the “activity change, negative = inhibition” value turn out when CCOC(=O)C1CCCN(S(=O)(=O)c2ccc3[nH]c(=O)ccc3c2)C1 (stereo not drawn) was run?
Answer: Its value is inactive: 4.93%.

Question: How did the “activity change, negative = inhibition” value turn out when COc1ccc(CN(C(C)=O)c2ccccc2C(=O)O)cc1 was run?
Answer: The value was inactive: -0.449%.

Question: COC(=O)c1sc(NC(=S)NC(=O)c2ccccc2F)nc1C was tested. Which Potency did it give?
Answer: The Potency was active: 8.49 µM.

Question: Which “activity change, negative = inhibition” value does the source give for COc1ccccc1N(C)S(=O)(=O)c1ccc(C(=O)N(C)Cc2ccc(OC(F)F)cc2)cc1 here?
Answer: The value was inactive: -0.819%.

Question: Which Potency does the source give for CC(=O)c1cc(C(=O)Nc2cccc(C)c2)c2ccccn12 here?
Answer: The Potency was inconclusive: 19 µM [inhibitor, partial curve].

Question: With CCNC(=O)c1c(N)sc2c1CCCCC2 as the molecule, how does the Potency read?
Answer: Its Potency is inconclusive: 26.9 µM [inhibitor, partial curve, poor fit].

Question: For Cc1ccc(C)c(N(C)C(=O)C2CCN(S(=O)(=O)c3cccc4nsnc34)CC2)c1, which “activity change, negative = inhibition” value is on record?
Answer: Its value is inactive: -0.669%.

Question: CCOC(=O)/C(C#N)=C/c1cccc(C)c1 was tested. Which Potency did it give?
Answer: The Potency was inconclusive: 21.3 µM [inhibitor, partial curve, poor fit].

Question: With CCOC(=O)C1=C(CC)Nc2ccccc2N/C1=N\S(=O)(=O)c1ccc(C(=O)OCC)cc1 as the molecule, how does the Potency read?
Answer: Its Potency is inconclusive: 23.9 µM [inhibitor, single point].

Question: How did the Potency turn out when CN(C)S(=O)(=O)c1cc(NC(=O)c2cc(=O)c3ccccc3o2)ccc1Cl was run?
Answer: Its Potency is inconclusive: 23.9 µM [inhibitor, partial curve].

Question: With Cc1ccc(Nc2c([N+](=O)[O-])c(=O)n(C)c3ccccc23)cc1 as the molecule, how does the Potency read?
Answer: The Potency was inconclusive: 19 µM [inhibitor, partial curve, poor fit].

Question: Which Potency does the source give for O=C(NCC1CCCO1)c1ccccc1-c1nc(-c2ccc(F)cc2)no1 (stereo not drawn) here?
Answer: The Potency was inconclusive: 23.9 µM [inhibitor, partial curve].

Question: With CCNC(=O)c1cccc(NC(=O)CC2SC(N3CCCCC3)=NC2=O)c1 (stereo not drawn) as the molecule, how does the Potency read?
Answer: The Potency was inconclusive: 21.3 µM [inhibitor, single point].

Question: Cc1ccc(/C=c2\sc3nc(-c4cccnc4)nn3c2=O)cc1 was tested. Which Potency did it give?
Answer: The Potency was active: 4.78 µM.

Question: For C=CCn1c(SCC(=O)c2ccccc2)nnc1-c1ccc2c(c1)OCO2, which Potency is on record?
Answer: The Potency was inconclusive: 37.9 µM [inhibitor, partial curve, poor fit].

Question: How did the Potency turn out when COc1ccc(C(=O)NCCCCCCNC(=O)c2ccc(OC)cc2)cc1 was run?
Answer: The Potency was inconclusive: 3.38 µM [inhibitor, partial curve, poor fit].

Question: How did the Potency turn out when Nc1nn(-c2ccccc2)c(N)c1N=Nc1ccccc1F was run?
Answer: Its Potency is active: 0.953 µM.

Question: For COCCNC(=O)c1onc(CSc2ccc(Cl)cc2)c1C(=O)O, which Potency is on record?
Answer: Its Potency is inconclusive: 21.3 µM [inhibitor, single point].

Question: With CCCCn1nnc(N(C(=O)c2cccs2)C(=O)c2cccs2)n1 as the molecule, how does the Potency read?
Answer: Its Potency is inconclusive: 37.9 µM [inhibitor, partial curve, poor fit].

Question: COc1ccc(-n2ncc3c2CC(C)(C)CC3NC(=O)CCn2cncn2)cc1 (stereo not drawn) was tested. Which “activity change, negative = inhibition” value did it give?
Answer: Its value is inactive: -1.57%.

Question: For CC(=O)Nc1ccc(N2C(=O)CSC2c2ccccc2)cc1 (stereo not drawn), which “activity change, negative = inhibition” value is on record?
Answer: The value was inactive: -1.38%.

Question: With COCCNC(=O)CCC(=O)NNc1nc2ccccc2c2nc(-c3ccccc3)nn12 as the molecule, how does the Potency read?
Answer: The Potency was inconclusive: 26.9 µM [inhibitor, partial curve, poor fit] and inconclusive: 37.9 µM [inhibitor, partial curve, poor fit].

Question: For Cc1ccc(C(=O)Nc2ccc3c(c2)OCCO3)c(Cl)c1, which Potency is on record?
Answer: Its Potency is active: 0.426 µM.
